According to the supplement of paper PMC8728848:
The other results are listed elsewhere or left out.

Legend:
Assay in all cases: glycan array binding signal (z-score within array); higher = stronger binding
Settings in all cases: glycan notation: IUPAC condensed, linker removed
[1] = molecular target: Fuc(a1-2)Gal(b1-4)[Fuc(a1-3)]GlcNAc
Outline: (§1)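 Columns mapping to the same glycan were averaged after glycan names were converted to IUPAC-condensed notation. The data come from 3228 arrays in the Consortium for Functional Glycomics database, limited to those with an available protein sequence. Binding is reported as a within-array Z-score averaged across arrays of one protein sequence and across linkers.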

[2] = molecular target: Fuc(a1-2)Gal(b1-4)[Fuc(a1-3)]GlcNAc(b1-2)Man(a1-3)[Fuc(a1-2)Gal(b1-4)[Fuc(a1-3)]GlcNAc(b1-2)Man(a1-6)]Man(b1-4)GlcNAc(b1-4)GlcNAc
Outline: as §1

[3] = molecular target: Fuc(a1-2)Gal(b1-4)[Fuc(a1-3)]GlcNAc(b1-2)[Fuc(a1-2)Gal(b1-4)[Fuc(a1-3)]GlcNAc(b1-4)]Man(a1-3)[Fuc(a1-2)Gal(b1-4)[Fuc(a1-3)]GlcNAc(b1-2)Man(a1-6)]Man(b1-4)GlcNAc(b1-4)GlcNAc
Outline: as §1

[4] = molecular target: Fuc(a1-2)Gal(b1-4)[Fuc(a1-3)]GlcNAc(b1-3)Gal(b1-4)[Fuc(a1-3)]GlcNAc
Outline: as §1

[5] = molecular target: Fuc(a1-2)Gal(b1-4)[Fuc(a1-3)]GlcNAc(b1-3)Gal(b1-4)[Fuc(a1-3)]GlcNAc(b1-3)Gal(b1-4)[Fuc(a1-3)]GlcNAc
Outline: as §1

[6] = molecular target: Fuc(a1-2)Gal(b1-4)[Fuc(a1-3)]GlcNAc(b1-3)GalNAc
Outline: as §1

Fuc(a1-2)Gal6S(b1-4)Glc = molecular target: Fuc(a1-2)Gal6S(b1-4)Glc
Outline: as §1

[7] = molecular target: Fuc(a1-2)Gal6S(b1-4)Glc6S
Outline: as §1

[8] = molecular target: Fuc(a1-2)Gal6S(b1-4)GlcNAc
Outline: as §1

Fuc(a1-2)[Gal(a1-3)]Gal = molecular target: Fuc(a1-2)[Gal(a1-3)]Gal
Outline: as §1

[9] = molecular target: Fuc(a1-2)[Gal(a1-3)]Gal(b1-3)GalNAc
Outline: as §1

[10] = molecular target: Fuc(a1-2)[Gal(a1-3)]Gal(b1-3)GlcNAc
Outline: as §1

[11] = molecular target: Fuc(a1-2)[Gal(a1-3)]Gal(b1-3)GlcNAc(b1-2)Man(a1-3)[Fuc(a1-2)[Gal(a1-3)]Gal(b1-3)GlcNAc(b1-2)Man(a1-6)]Man(b1-4)GlcNAc(b1-4)GlcNAc
Outline: as §1

[12] = molecular target: Fuc(a1-2)[Gal(a1-3)]Gal(b1-3)GlcNAc(b1-2)Man(a1-3)[Fuc(a1-2)[Gal(a1-3)]Gal(b1-3)GlcNAc(b1-2)Man(a1-6)]Man(b1-4)GlcNAc(b1-4)[Fuc(a1-6)]GlcNAc
Outline: as §1

[13] = molecular target: Fuc(a1-2)[Gal(a1-3)]Gal(b1-3)GlcNAc(b1-3)GalNAc
Outline: as §1

[14] = molecular target: Fuc(a1-2)[Gal(a1-3)]Gal(b1-4)Glc
Outline: as §1

[15] = molecular target: Fuc(a1-2)[Gal(a1-3)]Gal(b1-4)GlcNAc
Outline: as §1

[16] = molecular target: Fuc(a1-2)[Gal(a1-3)]Gal(b1-4)GlcNAc(b1-2)Man(a1-3)[Fuc(a1-2)[Gal(a1-3)]Gal(b1-4)GlcNAc(b1-2)Man(a1-6)]Man(b1-4)GlcNAc(b1-4)GlcNAc
Outline: as §1

[17] = molecular target: Fuc(a1-2)[Gal(a1-3)]Gal(b1-4)GlcNAc(b1-2)Man(a1-3)[Fuc(a1-2)[Gal(a1-3)]Gal(b1-4)GlcNAc(b1-2)Man(a1-6)]Man(b1-4)GlcNAc(b1-4)[Fuc(a1-6)]GlcNAc
Outline: as §1

[18] = molecular target: Fuc(a1-2)[Gal(a1-3)]Gal(b1-4)GlcNAc(b1-3)GalNAc
Outline: as §1

[19] = molecular target: Fuc(a1-2)[Gal(a1-3)]Gal(b1-4)[Fuc(a1-3)]Glc
Outline: as §1

[20] = molecular target: Fuc(a1-2)[Gal(a1-3)]Gal(b1-4)[Fuc(a1-3)]GlcNAc
Outline: as §1

[21] = molecular target: Fuc(a1-2)[Gal(a1-3)]Gal(b1-4)[Fuc(a1-3)]GlcNAc(b1-3)GalNAc
Outline: as §1

[22] = molecular target: Fuc(a1-2)[Gal(a1-4)]Gal(b1-4)GlcNAc
Outline: as §1

[23] = molecular target: Fuc(a1-2)[GalNAc(a1-3)]Gal
Outline: as §1

[24] = molecular target: Fuc(a1-2)[GalNAc(a1-3)]Gal(b1-3)GalNAc(a1-3)[Fuc(a1-2)]Gal(b1-4)GlcNAc
Outline: as §1

[25] = molecular target: Fuc(a1-2)[GalNAc(a1-3)]Gal(b1-3)GlcNAc
Outline: as §1

[26] = molecular target: Fuc(a1-2)[GalNAc(a1-3)]Gal(b1-3)GlcNAc(b1-2)Man(a1-3)[Fuc(a1-2)[GalNAc(a1-3)]Gal(b1-3)GlcNAc(b1-2)Man(a1-6)]Man(b1-4)GlcNAc(b1-4)GlcNAc
Outline: as §1

[27] = molecular target: Fuc(a1-2)[GalNAc(a1-3)]Gal(b1-3)GlcNAc(b1-2)Man(a1-3)[Fuc(a1-2)[GalNAc(a1-3)]Gal(b1-3)GlcNAc(b1-2)Man(a1-6)]Man(b1-4)GlcNAc(b1-4)[Fuc(a1-6)]GlcNAc
Outline: as §1

[28] = molecular target: Fuc(a1-2)[GalNAc(a1-3)]Gal(b1-3)GlcNAc(b1-3)GalNAc
Outline: as §1

B1: UEA-I (Ulex europaeus), P22972 (protein)
chain: SDDLSFKFKNFSQNGKDLSFQGDASVIETGVLQLNKVGNNLPDETGGIARYIAPIHIWNCNTGEVASFITSFSFFMETSANPKAATDGLTFFLAPPDSPLRRAGGYFGLFEDTKDNDSSYQTVAVEFDTIGSPVNFDDPGFPHIGIDVNRVKSINAERWNKRYGLNNVANVEIIYEASSKTLTASLTYPSDQTSISVTSIVDLKEILPEWVSVGFSGGTYIGRQATHEVLNWYFTSNLIN
glycan array binding signal (z-score) [1]: 2.53 | glycan array binding signal (z-score) [2]: -0.163 | glycan array binding signal (z-score) [3]: -0.148 | glycan array binding signal (z-score) [4]: -0.127 | glycan array binding signal (z-score) [5]: -0.135 | glycan array binding signal (z-score) [6]: -0.157 | glycan array binding signal (z-score) (Fuc(a1-2)Gal6S(b1-4)Glc): 4.06 | glycan array binding signal (z-score) [7]: 8.02 | glycan array binding signal (z-score) [8]: 3.85 | glycan array binding signal (z-score) (Fuc(a1-2)[Gal(a1-3)]Gal): -0.182 | glycan array binding signal (z-score) [9]: -0.182 | glycan array binding signal (z-score) [10]: -0.178 | glycan array binding signal (z-score) [11]: -0.181 | glycan array binding signal (z-score) [12]: -0.147 | glycan array binding signal (z-score) [13]: -0.183 | glycan array binding signal (z-score) [14]: -0.182 | glycan array binding signal (z-score) [15]: -0.182 | glycan array binding signal (z-score) [16]: -0.187 | glycan array binding signal (z-score) [17]: -0.167 | glycan array binding signal (z-score) [18]: -0.178 | glycan array binding signal (z-score) [19]: -0.176 | glycan array binding signal (z-score) [20]: -0.173 | glycan array binding signal (z-score) [21]: -0.182 | glycan array binding signal (z-score) [22]: 5.33 | glycan array binding signal (z-score) [23]: -0.182 | glycan array binding signal (z-score) [24]: -0.187 | glycan array binding signal (z-score) [25]: -0.178 | glycan array binding signal (z-score) [26]: -0.185 | glycan array binding signal (z-score) [27]: -0.148 | glycan array binding signal (z-score) [28]: -0.158
